Source: PubChem BioAssay AID1159614 (National Center for Advancing Translational Sciences (NCATS), 2016)
Screen size: about 45,000 compounds; about 65 (0.1%) were called active. Calls follow the shape of the dose curve; as a rule, active = well fitted activation curve with a large enough effect; inconclusive = small, poorly fitted or top-dose-only effect; inactive = no such curve, though single readings can be large or run the other way. The list shows a part of the results.

Each molecule was assayed against Galactocerebrosidase (Homo sapiens) (UniProt P54803) (assay: A Novel Cell-Based Assay to Identify Small Molecules for B -Galactocerebrosidase). Settings: 145M-Twi-hGALC-G270D cells (Twitcher mouse brain line with human GALC G270D), HMU-beta-Gal fluorescence, 48 h; series mostly up to 57.5 µM; activation: at the top concentration.
Method in brief: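 Mutant human GALC (G270D), stably expressed in a Twitcher mouse brain cell line lacking endogenous GALC, is measured in live-treated cells via 6-hexadecanoylamino-4-methylumbelliferyl-β-galactoside hydrolysis (0.1 mM final, pH 5.2) with fluorescent detection.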
Also: 0% is about no effect; nearly all actives have a fitted effect of over 65% in size.

Chain of UniProt P54803 (P54803 whole entry, looked up): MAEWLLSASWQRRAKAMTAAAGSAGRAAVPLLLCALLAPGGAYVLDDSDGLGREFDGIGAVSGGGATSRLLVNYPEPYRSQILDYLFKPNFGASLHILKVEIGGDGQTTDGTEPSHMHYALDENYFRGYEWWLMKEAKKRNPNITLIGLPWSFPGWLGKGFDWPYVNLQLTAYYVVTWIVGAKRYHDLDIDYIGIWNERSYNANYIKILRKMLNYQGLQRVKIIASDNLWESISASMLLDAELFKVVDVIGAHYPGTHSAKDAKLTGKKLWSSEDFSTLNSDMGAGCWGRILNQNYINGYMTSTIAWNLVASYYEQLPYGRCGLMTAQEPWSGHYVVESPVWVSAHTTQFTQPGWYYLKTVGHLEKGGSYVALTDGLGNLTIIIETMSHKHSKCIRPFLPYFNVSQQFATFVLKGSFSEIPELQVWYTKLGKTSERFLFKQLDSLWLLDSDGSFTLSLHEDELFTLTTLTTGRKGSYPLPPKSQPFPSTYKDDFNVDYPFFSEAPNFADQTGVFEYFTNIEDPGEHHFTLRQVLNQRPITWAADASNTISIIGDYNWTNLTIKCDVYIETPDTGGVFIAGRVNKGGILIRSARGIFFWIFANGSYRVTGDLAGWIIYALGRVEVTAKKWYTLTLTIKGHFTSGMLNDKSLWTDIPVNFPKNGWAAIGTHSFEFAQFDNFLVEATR

Compound	activation
COc1ccccc1CNC(=O)CN1C(=O)CCCc2ccccc21	inactive: -12.6%
CCCCOc1ccc(C2c3c(oc4ccccc4c3=O)C(=O)N2c2nc(C)c(C(=O)OCC)s2)cc1OC (centres undefined)	inactive: -15.1%
CCc1ccc(NC(=O)c2ccc3c(c2)c(C)c(C)n3Cc2ccccc2)cc1	inactive: 4.95%
O=C(Nc1ccccc1Br)N1CCN2CCCCC2C1 (centres undefined)	inactive: 2.87%
CCc1ccc(NC(=O)Cn2nnc(C(=O)Nc3cc(C)ccc3OC)c2N)cc1	inactive: 14.6%
CC(=O)c1ccc(NC(=O)c2ccc(CN3C(=O)CCn4nc(C)cc43)cc2)cc1	inactive: -13.9%
COc1ccc(S(=O)(=O)NCCc2cn3ccsc3n2)cc1	inactive: -2.48%
Cc1ccc(S(=O)(=O)Nc2ccc3c(c2)c(C(=O)OC(C)C)c(C)n3S(=O)(=O)c2ccc(C)cc2)cc1	inactive: -20.1%
Cc1ccc(CCNC(=O)CN2CCN(Cc3ccc(Cl)cc3)C2=O)cc1	inactive: -11.7%
O=C(CCC1N=C2c3ccccc3N=C(SCc3cccc(F)c3)N2C1=O)NCc1ccc(F)cc1 (centres undefined)	inactive: -23.3%
O=S(=O)(Nc1ccc(Br)cc1)c1ccc2nc(-c3ccccc3)[nH]c2c1	inactive: -11.6%
CCN(CC)CCNC(=O)Cn1ncc2c3ccccc3n(Cc3ccccc3C)c2c1=O	inactive: -14.8%
COc1ccc(CCNC(=O)Cn2ccc3cc(S(=O)(=O)N4CCCCC4)ccc32)cc1OC	inactive: -7.59%
COC(=O)c1ccccc1NC(=O)c1cc(=O)c2ccc(C)c(C)c2o1	inactive: -13%
Cn1nnnc1SCCCNCc1ccccc1OCc1ccccc1F	inactive: -15.8%
COc1ccc(C(=O)c2cn(Cc3cccc(C)c3)c3cc4c(cc3c2=O)OCCO4)cc1OC	inactive: -11.1%
CCc1ccc(NC(=O)CN2C(=O)CCSc3ccc(S(=O)(=O)N4CCCC4)cc32)cc1	inactive: 0.72%
Cc1nn2c(=O)cc(COC(=O)c3ccc(F)cc3)nc2s1	inactive: -5.28%
NC1CCN(c2cccc(Cl)n2)CC1	inactive: -15.7%
COc1ccccc1CNC(=O)CCCn1c(=O)c2cccn2c2ccccc21	inactive: -12.5%
CC(C)(C)OC(=O)N1CCC(c2c(C(=O)N3CCOCC3)cnn2-c2ccccc2Cl)CC1	inactive: -16.8%
CCCCNC(=O)CCCn1c(=O)c2ccccc2n(Cc2ccc(Cl)cc2)c1=O	inactive: -25.7%
COc1ccc(C2CC(=O)c3cnc4c(-c5ccccc5)c(C)nn4c3C2)c(OC)c1 (centres undefined)	inactive: -11.2%
COc1ccc2c(c1)c1c(c(=O)n(-c3ccc(OC)c(OC)c3)c(=O)n1Cc1ccc(C)cc1)n2C	inactive: -0.845%
Fc1ccc(-c2noc3ncnc(N4CCCCC4)c23)cc1	inactive: 8.32%

Compound	activation
COc1ccc(Cc2nc3ccc(C(=O)NCc4cc(Br)ccc4OC)cc3o2)cc1	inactive: -10.5%
N#Cc1ccccc1S(=O)(=O)N1CCC(Oc2ccc(-n3cnnn3)cc2)CC1	inactive: -12.5%
O=C(Cc1ccccc1)Nc1cc(-c2nc3cc(Cl)ccc3o2)ccc1Cl	inactive: -8.55%
CCc1c(C)nc2nncn2c1Nc1cccc(C)c1	inactive: -8.09%
COc1ccc(-c2nc(SCC(=O)Nc3cccc(C(C)=O)c3)n[nH]2)cc1	inactive: -7.81%
COc1ccc(NC(=O)C2CCN(c3nc(-c4ccc(OC)c(OC)c4)no3)CC2)cc1Cl	inactive: -14.9%
CCOC(=O)c1c(NC(=O)c2cc(=O)c3c(C)cc(C)cc3o2)sc2c1CCC2	inactive: 1.92%
COc1ccc(-c2cc(C(=O)OCC(=O)c3cccc(OC)c3)c3cccc(Cl)c3n2)cc1	inactive: -16.2%
O=C(O)CCNC(=O)c1ccc(N=Nc2ccc(O)c(C(=O)O)c2)cc1	inactive: -16.1%
COc1ccccc1N(C)C(=O)Cn1c(=O)oc2cc(S(=O)(=O)N3CCCC3)ccc21	inactive: -6.78%
Cc1ccccc1CNC(=O)C1CCCN(c2nnc(-n3c(C)ccc3C)s2)C1 (centres undefined)	inactive: 19.7%
CCOC(=O)c1c(NC(=O)CS(=O)(=O)c2ccc(Cl)cc2)sc2c1CCCC2	inactive: -19.8%
COc1ccc(CCC(=O)NCc2nc3cccnc3n2Cc2ccc(OC)cc2)cc1	inactive: -1.24%
CNC(=O)C1CCN(C(=O)N2CC(C)Oc3ccc(C)cc32)CC1 (centres undefined)	inactive: -17.3%
Cc1ccc(C)c(NC(=O)Cn2nnc(C(=O)NCc3ccco3)c2N)c1	inactive: 5.35%
CCOC(=O)c1c(C)oc2ncnc(N3CCN(c4cccc(Cl)c4)CC3)c12	inactive: -13.5%
CC1=C(C(=O)Nc2ccccc2)C(c2ccccc2Cl)n2ncc(C(=O)Nc3cccc(C)c3)c2N1 (centres undefined)	inactive: -13.7%
COc1ccc(Cl)cc1NC(=O)CSc1nc2ccccc2nc1N1CCCCC1	inactive: 2.73%
CCOC(=O)c1c(C)[nH]c(C)c1S(=O)(=O)N1CCN(c2ccccc2OC)CC1	inactive: -26.7%
Cn1c(=O)c2c(ncn2CC(=O)Nc2cc(Cl)cc(Cl)c2)n(C)c1=O	inactive: 6.93%
Cn1cc(S(=O)(=O)N2CCCCCC2)cc1C(=O)N1CCN(c2ccc(Cl)cc2)CC1	inactive: -8.86%
CCOC(=O)c1cc(-c2ccccc2)n(CCCC(=O)Nc2ccc(C)c(C)c2)c1C	inactive: -13.2%
Cc1nn(C)c2c1c(C(F)(F)F)cc(=O)n2C(C)C(=O)N1CCN(c2ccccc2)CC1 (centres undefined)	inactive: -12.2%
CN(Cc1ccccc1)C(=O)c1cc2c(s1)-c1ccc(Cl)cc1SC2	inactive: -9.57%
